From the RNAGym collection of RNA variant scans (doi:10.1073/pnas.2313332121)
This sample is rich in variants without activity.

B1: TPR 5TU (parent)
chain: GGAUCUUCUCGAUCUAACAAAAAAGACAAAUCUGCCACAAAGCUUGAGAGCAUCUUCGGAUGCAGAGGCGGCAGCCUUCGGUGGCGCGAUAGCGCCAACGUUCUCAACUAUGACACGCAAAACGCGUGCUCCGUUGAAUGGAGUUUAUCAUG

Variants of: B1
Experiment: polymerase ribozyme fitness, log enrichment relative to wild type (log ratio); higher = more active; in vitro selection for triplet polymerase activity
Method in brief: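 Mutant libraries of each subunit of a heterodimeric triplet polymerase ribozyme were built by PCR and transcribed. Each library went through one round of in vitro selection in triplicate: annealing with biotinylated primer, partner subunit and triplets, frozen incubation at −7 °C, gel excision of extended constructs, streptavidin-bead capture and RT-PCR. Input and output libraries were Illumina-sequenced; only genotypes with ≥10 input reads and ≥1 read per output were kept. Fitness is log2(genotype enrichment/wild-type enrichment), using inverse-variance-weighted replicate averages.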

| Variant | polymerase ribozyme fitness (log ratio) |
| --- | --- |
| A40U C93G C125A U135G | ≤ -4.2 |
| A40U C93U U101G G128U | -4.04 |
| A40U C96U A110C A150U | ≤ -4.2 |
| A40U C99G G126A C149G | ≤ -4.2 |
| A40U C125U G128C | ≤ -4.2 |
| A40U G42A A49U G58A U61G A97U A115G A119U | ≤ -4.2 |
| A40U G48A G74A U90C G152U | ≤ -4.2 |
| A40U G48C C85G C99A G143A | ≤ -4.2 |
| A40U G50C C85U | -2.29 |
| A40U G58A C87U G143U | ≤ -4.2 |
| A40U G58A G94A A107U | ≤ -4.2 |
| A40U G58C A64U C108G | ≤ -4.2 |
| A40U G58C A113C G124A | -2.93 |
| A40U G59C | 0.561 |
| A40U G68A | -4.03 |
| A40U G71U A106G A115G G133U G140A | ≤ -4.2 |
| A40U G83A A89U C114U G133U G136U U145A | ≤ -4.2 |
| A40U G84A | -0.341 |
| A40U G88U C95U A121U | ≤ -4.2 |
| A40U G94C C108G | ≤ -4.2 |
| A40U U44A A47C A66G C116U | ≤ -4.2 |

| Variant | polymerase ribozyme fitness (log ratio) |
| --- | --- |
| A40U U53A | -0.83 |
| A40U U55A A66G U151G | ≤ -4.2 |
| A40U U55A G62U A91C C114U C116U | ≤ -4.2 |
| A40U U77G C87U A122G | ≤ -4.2 |
| A40U U104C A107C C149U | ≤ -4.2 |
| A41C A47C C85A C93G G94C C108U A137U C149G | ≤ -4.2 |
| A41C A49C G65C C93A G126C | ≤ -4.2 |
| A41C A49U U53A A60C G88U A122U U134A | ≤ -4.2 |
| A41C A52C C103G U111A U146C | ≤ -4.2 |
| A41C A52U A60U G88A C131A U134C G140A | ≤ -4.2 |
| A41C A52U C93U U102G C132A C149G | ≤ -4.2 |
| A41C A60G C75A A138U G141U U146C U148C | ≤ -4.2 |
| A41C A91C C118A C125A A150U | ≤ -4.2 |
| A41C A137G C149U | -2.44 |
| A41C C51A G68U C69A G84U A106U | ≤ -4.2 |
| A41C C54A A91C U104G U127A G140U U151C | ≤ -4.2 |
| A41C C54A U82G G94U | -3.5 |
| A41C C54G U55G C57A C79G A115C | ≤ -4.2 |
| A41C C54U C57U G140U U148A | ≤ -4.2 |
| A41C C54U G92A U127A | ≤ -4.2 |
| A41C C57A C87U C114G | -3.91 |

| Variant | polymerase ribozyme fitness (log ratio) |
| --- | --- |
| A41C C72G A106G G143C U151G | ≤ -4.2 |
| A41C C75A C87A | ≤ -4.2 |
| A41C C75U C87A U148A | ≤ -4.2 |
| A41C C87G | ≤ -4.2 |
| A41C C93G U144C | -3.7 |
| A41C C116G | -0.175 |
| A41C G42C C93U G94U A107U A110C G124U G136C A137U C149U | ≤ -4.2 |
| A41C G50C G84A | ≤ -4.2 |
| A41C G50U G74A C75G U77G C79A G88U C93U C108U A120U | ≤ -4.2 |
| A41C G59C C75U G83C | -2.72 |
| A41C G65A A66G U111A C132G | ≤ -4.2 |
| A41C G67C G68A G88C G92A A107C | ≤ -4.2 |
| A41C G68U G81A C96A | ≤ -4.2 |
| A41C G81C G84U A107G U135A G141A | ≤ -4.2 |
| A41C G86U A89G G140A | ≤ -4.2 |
| A41C G86U G133A U146C | ≤ -4.2 |
| A41C G88A A115U A138C | ≤ -4.2 |
| A41C G88A G92A A115U U151G | ≤ -4.2 |
| A41C G152U | -2.69 |
| A41C U44A G84A U146G | ≤ -4.2 |
| A41C U44G U82A G84C U102G | ≤ -4.2 |

| Variant | polymerase ribozyme fitness (log ratio) |
| --- | --- |
| A41C U45G A91G U148G | ≤ -4.2 |
| A41C U53A C76U | -1.65 |
| A41C U53A G58A C63U G94A A107G U146A | ≤ -4.2 |
| A41C U53A U56G C76U G86A A138U | ≤ -4.2 |
| A41C U53A U78G G84U G126U | ≤ -4.2 |
| A41C U53C G81C C114A A115U C123G | ≤ -4.2 |
| A41C U55A A97G | -0.161 |
| A41C U55A G58C A98U | -0.108 |
| A41C U61A C76A A91U C99A A110U A150C | ≤ -4.2 |
| A41C U82C | -1.14 |
| A41G A47U U78C C79A G86C C105G | ≤ -4.2 |
| A41G A52C A64G C103G | ≤ -4.2 |
| A41G A52G C87U U144G U148G | -3.95 |
| A41G A91U C93G U102A A120U C131G G133A U145G | ≤ -4.2 |
| A41G C54U G84C A106C U111A A115C | ≤ -4.2 |
| A41G C57G G88C U90G A106G G133A | ≤ -4.2 |
| A41G C75G | -2.98 |
| A41G C85U U101C C125G G133U C149A | ≤ -4.2 |
| A41G C95U A122G C149A | ≤ -4.2 |
| A41G G42A G48C C93A A106C U109C A137C | ≤ -4.2 |
| A41G G48U G81C C95A C96A U134G U145C | ≤ -4.2 |
